According to PMC4336329 (PLoS ONE, 2015):
Screen size: about 310,000 compounds; about 14,000 (4.5%) showed an effect of 50% or more. The effect is printed as a negative number. The list shows a part of the results.

Each molecule was assayed against human ether-à-go-go-related gene (hERG) potassium channel (human, UniProt Q12809) (assay: primary screen, population patch clamp on CHO cells stably expressing hERG).
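Further: peak tail current of the secondary pulse compared with the same well before compound.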

Chain of human ether-à-go-go-related gene (hERG) potassium channel (Q12809 whole entry, looked up): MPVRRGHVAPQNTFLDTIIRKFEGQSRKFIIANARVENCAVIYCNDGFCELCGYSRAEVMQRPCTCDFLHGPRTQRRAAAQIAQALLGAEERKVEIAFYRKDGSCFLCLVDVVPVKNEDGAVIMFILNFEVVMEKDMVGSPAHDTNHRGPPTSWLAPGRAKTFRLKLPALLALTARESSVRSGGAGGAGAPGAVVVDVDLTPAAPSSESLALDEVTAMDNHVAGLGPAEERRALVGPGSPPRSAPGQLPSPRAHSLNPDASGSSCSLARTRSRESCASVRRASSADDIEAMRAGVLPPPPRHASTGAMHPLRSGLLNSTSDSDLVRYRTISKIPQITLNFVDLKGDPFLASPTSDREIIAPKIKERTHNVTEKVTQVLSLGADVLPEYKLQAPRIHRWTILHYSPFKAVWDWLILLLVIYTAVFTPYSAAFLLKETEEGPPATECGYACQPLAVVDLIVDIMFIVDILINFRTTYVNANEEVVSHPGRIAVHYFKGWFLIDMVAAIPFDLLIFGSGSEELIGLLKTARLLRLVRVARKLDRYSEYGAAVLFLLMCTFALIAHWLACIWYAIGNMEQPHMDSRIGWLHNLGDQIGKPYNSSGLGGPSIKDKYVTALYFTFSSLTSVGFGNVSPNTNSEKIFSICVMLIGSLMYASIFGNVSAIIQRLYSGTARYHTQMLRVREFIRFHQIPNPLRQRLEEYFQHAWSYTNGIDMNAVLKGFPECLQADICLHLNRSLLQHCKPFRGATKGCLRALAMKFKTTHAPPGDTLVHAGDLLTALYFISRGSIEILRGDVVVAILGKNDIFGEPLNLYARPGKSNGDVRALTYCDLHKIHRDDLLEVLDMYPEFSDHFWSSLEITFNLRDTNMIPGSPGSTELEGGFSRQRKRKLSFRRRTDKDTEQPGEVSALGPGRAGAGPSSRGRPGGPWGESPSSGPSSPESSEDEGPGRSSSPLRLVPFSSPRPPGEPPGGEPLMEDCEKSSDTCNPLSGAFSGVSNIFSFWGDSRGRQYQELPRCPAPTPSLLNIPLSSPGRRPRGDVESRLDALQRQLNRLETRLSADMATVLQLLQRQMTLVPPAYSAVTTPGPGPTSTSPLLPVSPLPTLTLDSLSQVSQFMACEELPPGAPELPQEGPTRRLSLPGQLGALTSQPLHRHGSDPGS

| SMILES | hERG current change (%, negative = inhibition) at 10uM |
| --- | --- |
| CCn1cc(C(=O)NCc2ccncc2)c(=O)c2cc(F)c(N3CCN(C(=O)c4ccco4)CC3)cc21 | -66.4% |
| CN(C)c1ccc(C(CC(=O)O)NC(=O)c2ccc(Cl)cc2)cc1 (stereo not drawn) | -9.38% |
| CCn1c(O)c(N=NC(=O)c2cccnc2)c2cc(Br)ccc21 | -2.17% |
| CC(=O)Nc1sc(C)c(C)c1C(=O)OCC(=O)N(Cc1ccccc1)C(C)C | 10.1% |
| CC(C)CNC(=O)NC(=O)COC(=O)C1CSC2(c3ccc(F)cc3)CCC(=O)N12 (stereo not drawn) | 4.49% |
| COC(=O)CCc1c(C)c(C(=O)c2cc(F)c(F)c(F)c2F)c2ccccn12 | -28.4% |
| O=C(c1ccco1)c1cn(CC(=O)N2CCCCC2)c2ccccc12 | -6.34% |
| Cc1c(C)n(Cc2ccccc2)c2ncnc(NCCCO)c12 | 18.4% |
| CC(=O)c1c(C)n([O-])c2ccccc2[n+]1=O | 10.3% |
| CCCCn1c(N)c(N(CC(C)C)C(=O)c2cccc(OCc3ccccc3)c2)c(=O)[nH]c1=O | 20% |
| CCCCC/C=C/C1=CC(=O)C[C@H](c2ccc(OC)cc2)C1 | -2.92% |
| COc1ccc(Nc2nc3ccccc3s2)cc1 | 18% |
| COc1ccc(Cc2nc3ccc(C(=O)N4CCC[C@H]4CO)cc3o2)cc1 | -0.571% |
| O=C(NCC(=O)N(c1ccc(F)cc1)C(C(=O)NC1CCCCC1)c1cccnc1)c1ccco1 (stereo not drawn) | 4.87% |
| C=CCOc1c(Br)cc(/C=C(\C#N)C(N)=O)cc1OC | -5.83% |
| CCN(C(=O)CSc1ncccc1C(=O)Oc1cccc([N+](=O)[O-])c1)c1cccc(C)c1 | 2.56% |
| N#Cc1cc([N+](=O)[O-])ccc1NC(=O)COC(=O)C1CC2CCCC(C1)C2=O (stereo not drawn) | -18.3% |
| CCc1nc(SCC(=O)NCCc2ccccc2)c2c(=O)n(C)c(=O)n(C)c2n1 | -7.8% |
| COc1ccccc1CNC(=O)Cn1cc([N+](=O)[O-])ccc1=O | 15.2% |
| O=C(NC1CCCc2ccccc21)c1ccc(Br)cc1 (stereo not drawn) | -7.78% |
| CC(C)Cn1c(=O)c(C(=O)NCc2ccc3c(c2)OCO3)c(O)c2ccccc21 | 16.4% |
| CC(=O)Nc1ccc(OCc2cnc(Cl)s2)cc1 | 11.3% |
| COc1cccc(/C=C2\Oc3cc(OC(=O)N4CCOCC4)ccc3C2=O)c1 | 14.2% |

| SMILES | hERG current change (%, negative = inhibition) at 10uM |
| --- | --- |
| O=C(OCC(=O)N1c2ccccc2Sc2ccccc21)C1CC(=O)N(Cc2ccco2)C1 (stereo not drawn) | -5.25% |
| O=c1[nH]c2ccc(F)cc2[nH]c1=O | 26.1% |
| O=C(NCc1cccnc1)C(=O)C1C(=O)Nc2ccccc21 (stereo not drawn) | 13.1% |
| CCCOc1ccc(CNC(=O)c2ccc3c(c2)N(CC)CCS3)cc1 | -10.5% |
| O=C(N/N=C\c1ccccc1F)c1ccc(-c2ccccc2)cc1 | 12% |
| Cc1cc(S(=O)(=O)NCCCN2CCOCC2)c(Cl)cc1Cl | -13.1% |
| N#CC1=C(N)Oc2n[nH]c(-c3ccccc3)c2C1c1ccsc1 (stereo not drawn) | 7.03% |
| COc1ccc(-c2c(C#Cc3ccsc3)c3cc(-c4cccc5[nH]ccc45)ccc3n2C)cc1 | 8.23% |
| CCCCOP(=O)(c1ccc(N(C)C)cc1)C(O)c1cc(OC)ccc1OC (stereo not drawn) | 12.5% |
| CCCCc1cc(=O)oc2c(CN(C)C)c(O)c(Cl)cc12 | -1.34% |
| CCC(=O)NC1(Cc2ccc(O)cc2)CCCCC1 | -2.21% |
| O=C(c1ccccc1)N(c1ccccc1)C1C=CS(=O)(=O)C1 (stereo not drawn) | 6.75% |
| CCCOc1nc2c(c(=O)n(C)c(=O)n2C)n1C | 1.36% |
| CCOc1ccc(OCCCC(=O)Nc2cc(Cl)ccc2-n2cncn2)cc1 | -43.1% |
| CC(=O)Nc1ccc(NC(=O)C(=O)c2cn(CC(=O)N3CCCCC3)c3ccccc23)cc1 | 25.8% |
| CCOCCCNC(=O)CCCOc1ccccc1 | -12.9% |
| COCCNC(=O)c1ccc2c(=O)n(Cc3ccco3)c(SCC(=O)NC3CCCCC3)nc2c1 | -47.1% |
| CCOC(=O)c1cccc(NC(=O)c2cc3sccc3n2C)c1 | -15.3% |
| CCc1ccc(N=CC2=C(O)CC(c3ccco3)CC2=O)cc1 (stereo not drawn) | -4.48% |
| Cc1cc(C)n2nc(C(=O)Nc3ccc4c(c3)CCC4)nc2n1 | -15.7% |
| O=c1c(-c2n[nH]c(=S)n2-c2ccccc2)cccn1Cc1cccc(Cl)c1 | 24.7% |
| CCCCc1nnc(NC(=O)CCSc2ccccc2)s1 | -16.3% |
